The test system of assay [1] is Human breast cancer cells MDA-MB-453. As to the kind of experiment: Antitumor efficacy in the MDA-MB-453 CDX model, Test Example 8. In kind it is in vivo, mice. Conditions: 5mg/kg single dose, tail vein; for TGI: day 32; for Tumor volume (On the 32st day of administration): PBS 746.80. From the text:
Test Example 8 Antitumor efficacy of the NECTIN4 ligand-drug conjugate of the present invention in the MDA-MB-453CDX model • 1. […] Tumor growth curves were generated using GraphPad Prism 8.0.2.2.263 software.
Where V0 and VT are the tumor volumes at the start and end of the experiment, respectively. CRTV and TRTV are the relative tumor volumes of the blank control group (PBS) and the experimental group at the end of the experiment, respectively.

Assay [2] deals with MDA-MB-453. As to the kind of experiment: In vitro proliferation inhibition assay of ligand-drug conjugates targeting NECTIN-4, Test Example 4. It is filed as cell-based, human. Conditions: NECTIN4 ADC, 3 days, CTG. Here is the method:
The cell lines used in the experiment were human breast cancer T47D and MDA-MB-453 cell lines that highly expressed NECTIN4. Cell suspensions were prepared in fresh cell culture medium containing 10% FBS and then diluted to a density of 5×10^4 cells/mL, 10×10^4 cells/mL. 100 µL per well was added to a 96 well cell culture plate (Thermo catalog number: 167425) and cultured at 37 °C with 5% carbon dioxide for 24 hours.
The ADC samples were prepared at 10 µM stock solutions in PBS as the initial concentration, and a five-fold gradient dilution was performed using PBS, for a total of nine concentrations. 50 µL of culture medium was aspirated from each well, and 50 µL of the above ADC solution was added, resulting in an initial ADC concentration of 5 µM in each well and a final volume of 100 µL per well. The cells were cultured at 37°C in 5% CO2 for 3 days. 100 µL of CTG (Celltiter-Glo® Luminescent Cell Viability Assay, Promega, Catalog No. G7573) was added per well. The cells were mixed on a decolorizing shaker at room temperature for 30 minutes, incubated for 10 minutes, and chemiluminescence was read on a microplate reader (TECAN, Spark). Data were analyzed using Graphpad Prism 5 software. Table 17 IC50 values of the ligand-drug conjugates of the present invention for inhibition of cancer cell proliferation in vitro

B1: NECTIN4-ADC-1: "Ab refers to the PADCEV antibody" (conjugate, chains of the INN, looked up)
heavy: EVQLVESGGGLVQPGGSLRLSCAASGFTFSSYNMNWVRQAPGKGLEWVSYISSSSSTIYYADSVKGRFTISRDNAKNSLSLQMNSLRDEDTAVYYCARAYYYGMDVWGQGTTVTVSSASTKGPSVFPLAPSSKSTSGGTAALGCLVKDYFPEPVTVSWNSGALTSGVHTFPAVLQSSGLYSLSSVVTVPSSSLGTQTYICNVNHKPSNTKVDKRV[human IgG1 Fc not printed]
light: DIQMTQSPSSVSASVGDRVTITCRASQGISGWLAWYQQKPGKAPKFLIYAASTLQSGVPSRFSGSGSGTDFTLTISSLQPEDFATYYCQQANSFPPTFGGGTKVEIKRTVAAPSVFIFPPSDEQLKSGTASVVCLLNNFYPREAKVQWKVDNALQSGNSQESVTEQDSKDSTYSLSSTLTLSKADYEKHKVYACEVTHQGLSSPVTKSFNRGEC
modifications: drug-linker conjugate
The term TGI denotes how far tumour growth fell short of that in controls. A lower TGI goes with a weaker effect on the tumour. In general, IC50 refers to the concentration that inhibits the measured activity by half. A higher IC50 goes with weaker potency in that assay. On to B1, for which, in assay [1], the TGI turned out to be 59.99% and the “Tumor volume (On the 32st day of administration)” value amounted to 298.85 mm^3. Further, the IC50 in assay [2] amounted to 60.3 nM.

B2: NECTIN4-ADC-2: "Ab refers to the PADCEV antibody" (conjugate, chains of the INN, looked up)
heavy: B1 heavy
light: B1 light
modifications: drug-linker conjugate
As to B2, in assay [1], the TGI stood at 99.66% and the “Tumor volume (On the 32st day of administration)” value was determined as 2.49 mm^3. In addition, the IC50 in assay [2] came out at 9.2 nM.

B3: NECTIN4-ADC-4: "Ab refers to the PADCEV antibody" (conjugate, chains of the INN, looked up)
heavy: B1 heavy
light: B1 light
modifications: drug-linker conjugate
In assay [2], B3 gave an IC50 of roughly 200 nM.

B4: NECTIN4-ADC-3: "Ab refers to the PADCEV antibody" (conjugate, chains of the INN, looked up)
heavy: B1 heavy
light: B1 light
modifications: drug-linker conjugate
Regarding B4, in assay [2], the IC50 was 38.8 nM.

Values taken from EP4711371A1 (priority 2023, dated 2024).
